Measured values: PubChem BioAssay AID540267 (National Center for Advancing Translational Sciences (NCATS), 2011)
Among all 340,000 compounds or so, about 530 (0.16%) were called active. The inconclusive results got no clear call from the source; some entries with a clear call stand among them for comparison. Cut-off read from the data, not from the text of the source: active = activity change below about -80%; inconclusive = between about -30% and that limit; inactive = weaker than that.
% is set by controls: 0 for no effect and ±100 for the full control effect.

Assay: Small Molecules that selectively kill Giardia lamblia: qHTS;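 note: parasites exposed to compound for two days anaerobically before the ATP read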
Details: Giardia lamblia trophozoite viability; at 7.66 µM; active compounds read low
Procedure, shortened: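 Giardia lamblia trophozoites (100 cells/well) were incubated with compounds for 48 h at 37 deg C under anaerobic conditions. Viability was read as ATP content by one-step luminescence after 15-30 min at room temperature.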
For `Cc1ccc(N2C(N)=C(C#N)C3(C(=O)N(C)c4ccccc43)C3=C2CC(C)(C)CC3=O)cc1Cl` (configuration not stated), the activity change was inconclusive: -31.6% [inhibitor]. For `Cn1nc([N+](=O)[O-])nc1N1CCOCC1`, the activity change was inconclusive: -64.2% [inhibitor]. For `CC(C)CNC(=O)C1Nc2ccc(C(F)(F)F)cc2C2C=CCC12` (configuration not stated), the activity change was inactive: -0.83%. With `CCN(CC)C(=O)c1nn(Cc2ccccc2)c(=O)c2ccccc12` the activity change was inactive: -5.82%. In the case of `Cc1ccc(C(=O)OCC(=O)N2CC(C)OC(C)C2)cc1` (configuration not stated), the activity change is reported as inactive: -10.1%. In the case of `COc1ccc(OCC(=O)NNC(=O)C2CCN(c3ncnc4sc(C)c(C)c34)CC2)cc1`, the activity change is reported as inconclusive: -46.5% [inhibitor]. For `Cn1c(N)c(C(=O)CSc2nnc(C3CC3)n2-c2ccccc2)c(=O)n(C)c1=O`, the activity change was inconclusive: -38.1% [inhibitor]. In the case of `COc1ccccc1C(=O)NCCC(=O)NC1=NCCS1`, the activity change is reported as inconclusive: -32.1% [inhibitor]. For `Cn1c(=N)n(CC(=O)C(C)(C)C)c2ccccc21`, the activity change was inconclusive: -36.6% [inhibitor]. For `Cc1ccc(N2CC(C(=O)Nc3nc4ccc(S(C)(=O)=O)cc4s3)CC2=O)cc1` (configuration not stated), the activity change was inactive: 2.58%. With `CN(c1ccccc1)S(=O)(=O)c1ccc(C(=O)Nc2nnc(C3CC3)o2)cc1` the activity change was inconclusive: -31.3% [inhibitor]. For `Cc1c(C(=O)OCC(=O)Nc2cccc(S(N)(=O)=O)c2)oc2c1ccc1ccccc12`, the activity change was inactive: 3.31%. For `S=c1[nH]nc(Cc2ccc(Cl)cc2)n1-c1ccc2c(c1)OCCO2`, the activity change was inconclusive: -37.8% [inhibitor]. With `CN(CC(=O)NCc1ccc(F)cc1)CC(=O)Nc1ccc(Cl)c(C(F)(F)F)c1` the activity change was inactive: 0.248%. With `Cc1ccc(NC(=S)NN2CCOCC2)c(C)c1` the activity change was inactive: 1.22%. For `COc1ccc(C)cc1N(C(=O)c1ccco1)C(C(=O)NC1CCCC1)c1ccc(N2CCOCC2)cc1` (configuration not stated), the activity change was inactive: -5.39%. With `COc1cccc(-c2cc(C(=O)Nn3cnnc3)c3ccccc3n2)c1` the activity change was inconclusive: -58.4% [inhibitor]. In the case of `CC(C)[C@H]1COC(NC2=N[C@@H](C(C)C)CO2)=N1`, the activity change is reported as inconclusive: -30.7% [inhibitor]. For `COc1ccccc1C1=NOC(C)(c2nnc(-c3cccc(Cl)c3)o2)C1` (configuration not stated), the activity change was inconclusive: -34% [inhibitor]. With `CCOc1ccc(OCc2ccc(C(=O)NCc3cccnc3)o2)cc1` the activity change was inactive: -1.82%. In the case of `COc1cc(/C=C/C(=O)c2ccc3c(c2)OCCO3)cc(OC)c1OC`, the activity change is reported as inconclusive: -45.8% [inhibitor]. In the case of `Cc1cc(/C=C2/C(=O)NN(c3ccccc3)C2=O)c(C)n1-c1cccc(O)c1`, the activity change is reported as inconclusive: -31.5% [inhibitor]. With `CC(C)CCNC(=O)NC(=O)COC(=O)CCN=C1NS(=O)(=O)c2ccccc21` the activity change was inconclusive: -37.6% [inhibitor]. In the case of `COc1ccccc1NC(=O)COc1cccnc1[N+](=O)[O-]`, the activity change is reported as inconclusive: -60.5% [inhibitor]. With `Cc1cccc(-c2noc(CCCC(=O)Nc3ccc(C(N)=O)cc3)n2)c1` the activity change was inactive: 4.38%. With `Cc1ccc(OCC(=O)NCC(=O)Nc2ccc(F)c(F)c2F)c([N+](=O)[O-])n1` the activity change was inconclusive: -32.2% [inhibitor]. With `N#Cc1nc(-c2ccc(OCc3ccc(Cl)cc3)cc2)oc1NCc1cccnc1` the activity change was inactive: 4.05%. In the case of `O=C(O)c1[nH]c2ccccc2c1CC(=O)N1CCN(c2ccccc2)CC1`, the activity change is reported as inconclusive: -32.4% [inhibitor]. For `CC(=O)[C@@H]1[C@@H](C)N(Cc2ccccc2)C(=O)N[C@H]1c1ccccc1`, the activity change was inconclusive: -37.3% [inhibitor]. With `CCCCCn1c(=O)[nH]c2cc(C(=O)N3CCN(c4ccc(F)cc4)CC3)ccc2c1=O` the activity change was inconclusive: -41.6% [inhibitor]. With `CC(C)Nc1nnc(SC(C)C(=O)Nc2ccc(N3CCOCC3)cc2)s1` (configuration not stated) the activity change was inconclusive: -32.3% [inhibitor]. In the case of `O=C(Nc1ccc(N2CCCC2)c(Cl)c1)c1ccco1`, the activity change is reported as inconclusive: -38.6% [inhibitor]. In the case of `CCOc1ccc(N2C(=O)CC(Cc3ccc(Br)cc3)C2=O)cc1` (configuration not stated), the activity change is reported as inactive: 14.7%. With `O=C(CSc1nc2cc(Cl)ccc2o1)NC1CC1` the activity change was inconclusive: -44.4% [inhibitor]. In the case of `O=C(Nc1ccc(Cl)cc1)c1nc[nH]c1C(=O)N1CCN(c2ccccc2)CC1`, the activity change is reported as inactive: 10.9%. In the case of `COc1ccc([C@H]2CC(=O)C=C(c3cc(C)ccc3OC)C2)cc1`, the activity change is reported as inactive: 8.29%. With `Cc1sc(N)c(C(=O)c2ccccc2Cl)c1C` the activity change was inactive: -18.5%. For `CN(C)N1C(=O)c2c(Cl)c(Cl)c(Cl)c(Cl)c2C1=O`, the activity change was inactive: -16.4%. In the case of `O=C(NC1CCN(S(=O)(=O)c2ccc(Cl)cc2)CC1)C1CCCCC1`, the activity change is reported as inconclusive: -38% [inhibitor]. For `O=[N+]([O-])c1nn(-c2ccc3c(c2)OCCO3)n(O)c1=NC1CCCCC1`, the activity change was active: -84.2%. For `COc1ccc(Oc2cnn(-c3ccccc3)c(=O)c2Br)cc1`, the activity change was inconclusive: -33.2% [inhibitor]. With `COCCN(C(=O)COC(=O)Cc1cccc2ccccc12)c1c(N)n(Cc2ccccc2)c(=O)[nH]c1=O` the activity change was inconclusive: -33.6% [inhibitor]. In the case of `COc1ccc(-c2oc3ccc(-c4cc(OC)c(OC)c(OC)c4)cc3c2-c2ccc(OC)cc2)cc1`, the activity change is reported as inconclusive: -44.7% [inhibitor]. In the case of `O=C(CCNc1n[nH]c(=O)[nH]c1=O)N/N=C/c1ccc(Cl)cc1`, the activity change is reported as inconclusive: -31.3% [inhibitor]. With `C=CC(C)(C)c1c(O)c(CC=C(C)C)c(O)c2c(=O)c3ccc(O)c(O)c3oc12` the activity change was inactive: -6.7%. In the case of `O=C(Cn1cc([N+](=O)[O-])ccc1=O)N1CCc2ccccc2C1`, the activity change is reported as inconclusive: -30% [inhibitor]. With `Cc1csc(SCC(=O)c2cc(C)n(Cc3cccs3)c2C)n1` the activity change was inconclusive: -47.4% [inhibitor]. In the case of `O=C(NC(=S)Nc1cccnc1Cl)c1ccco1`, the activity change is reported as inconclusive: -34.3% [inhibitor]. For `Cc1noc(C)c1COC(=O)COc1ccc(-c2ccccc2)cc1`, the activity change was inconclusive: -33.4% [inhibitor]. In the case of `N=C1C(c2ccccc2)=C(O)CN1c1cccc(S(=O)(=O)Nc2cccc(C(F)(F)F)c2)c1`, the activity change is reported as inactive: 7.82%. With `CC/C=C/[C@@H](c1ccccc1)[C@H](C)C(O)CC(=O)SC(C)(C)C` (some centres not stated) the activity change was inactive: 0.087%. With `CCOC(=O)N1CCC(NC(=O)CSCc2nc(-c3ccc(OCC)cc3)oc2C)CC1` the activity change was inconclusive: -38.9% [inhibitor]. For `O=C(CCC(=O)Nc1nnc(C2CCCCC2)s1)Nc1ccccc1`, the activity change was inactive: -8.64%. With `O=C(NCCN1C(=O)S/C(=C/c2cccnc2)C1=O)c1ccc(S(=O)(=O)N2CCCC2)cc1` the activity change was inconclusive: -30.1% [inhibitor]. In the case of `CCN(CC)c1ccc2cc(-c3nc4ccccc4[nH]3)c(=O)oc2c1`, the activity change is reported as active: -108%. For `CCOC(=O)c1nn(-c2ccc(C)cc2)cc1C(=O)c1ccccc1`, the activity change was inconclusive: -40.8% [inhibitor]. With `Cc1cc(=O)[nH]c2nnc(-c3ccc(Cl)cc3)n12` the activity change was inconclusive: -38% [inhibitor]. With `Cc1ccnc(NC(=O)CCCNC(=O)c2ccc(Cl)cc2)c1` the activity change was inconclusive: -30.6% [inhibitor]. For `Cc1ccc(F)cc1NC(=O)/C=C/c1ccc(S(=O)(=O)N2CCOCC2)cc1`, the activity change was inactive: -5.35%. In the case of `COC(=O)c1ccc(C#Cc2ccccc2)o1`, the activity change is reported as inconclusive: -38.8% [inhibitor]. With `CCNc1nc(NCC)nc(Oc2ccc(C(=O)OC)cc2)n1` the activity change was inconclusive: -36.9% [inhibitor]. With `COc1ccc(/C(O)=C2/C(=O)C(=O)N(c3ccccn3)C2c2ccc(F)cc2)cc1` (configuration not stated) the activity change was inconclusive: -31.2% [inhibitor]. In the case of `CC(C)(C)c1ccc(C(=O)O/N=C(\N)c2ccccn2)cc1`, the activity change is reported as inconclusive: -32.2% [inhibitor]. With `O=C(Nc1cccc(S(=O)(=O)N2CCOCC2)c1)C1=NN(c2ccccc2)C(=O)CC1` the activity change was inconclusive: -30.3% [inhibitor]. For `Cc1ccccc1CC(=O)Nc1ccc(S(=O)(=O)N2CCOCC2)cc1`, the activity change was inconclusive: -32.5% [inhibitor]. For `CCOC(=O)c1cn2nc(-c3ccc(OC)cc3)cc2nc1C1CCN(C(=O)OC(C)(C)C)CC1`, the activity change was inactive: 4.08%. For `Cn1c(NC(=O)C[n+]2cc(-c3ccc(Cl)cc3)n3c2CCC3)cc(=O)n(C)c1=O`, the activity change was inactive: 13.1%. In the case of `CCOC(=O)c1c(NC(=S)NCC2CCCO2)sc(C)c1C` (configuration not stated), the activity change is reported as inactive: 4.36%. In the case of `COc1cccc(CNc2ncnc3ccc(-c4c(C)noc4C)cc23)c1`, the activity change is reported as inconclusive: -34.9% [inhibitor]. In the case of `O=C(NNC1=NS(=O)(=O)c2ccccc21)c1ccccc1`, the activity change is reported as inconclusive: -39.6% [inhibitor]. In the case of `Cc1ccc(OCC(=O)N(C)CC(=O)Nc2ccc(Cl)c(C(F)(F)F)c2)c([N+](=O)[O-])n1`, the activity change is reported as inconclusive: -49.6% [inhibitor]. With `Cc1ccc2nc(-c3ccc(N)cc3)sc2c1` the activity change was inconclusive: -60.4% [inhibitor]. For `CC(C)CCC(CCNCc1ccccn1)c1ccc2c(c1)OCO2` (configuration not stated), the activity change was inconclusive: -36.7% [inhibitor]. With `COc1ccc(N2CCN(C(=O)c3ccc(Oc4ccc(C(F)(F)F)cn4)cc3)CC2)cc1` the activity change was inactive: -5.28%. With `C/C(=N\N=C(c1ccccc1)c1ccccc1)c1cccs1` the activity change was inactive: -5.67%. With `OCCN(CCO)CC(O)COc1ccc(Br)cc1` (configuration not stated) the activity change was inconclusive: -37% [inhibitor]. For `CCOc1ccc(OCC(=O)Nc2nccs2)cc1`, the activity change was inconclusive: -34.4% [inhibitor].
